According to PubChem BioAssay (NCATS):
The inconclusive results got no clear call from the source; some entries with a clear call stand among them for comparison. For some of these results: Where the call is inconclusive, the potency comes from a doubtful curve fit. For some of these results: A note “side channel” means that the fit belongs to a control or component signal, not to the main read-out. The source made the active and inactive calls. Unless noted, calls come from the whole dose curve; as a rule, active = well fitted curve in the direction sought with a large enough effect; inconclusive = small, poorly fitted or top-dose-only effect, or another doubt; inactive = no such curve, though single readings can be large; an effect the other way counts as inactive or inconclusive.

What was measured:
[1] = Cell Viability - LYMP2-016 (AID 984); conditions: LYMP2-016 lymphoblastoid cell viability, qHTS; series mostly up to 92.2 µM;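 note: potency is the fitted concentration of half-maximal effect; cells exposed to compound for 24 hours at 37 °C; nearly all actives have a fitted effect of over 55% in size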
Outline: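 Acute toxicity in a Coriell human lymphoblastoid line is scored as loss of intracellular ATP over 24 h of treatment in complete medium. CellTiter-Glo signal is fitted across concentrations with the Hill equation to give AC50.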

[2] = Cell Viability - LYMP2-020 (AID 986);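 note: potency is the fitted concentration of half-maximal effect; cells exposed to compound for 24 h at 37 °C; nearly all actives have a fitted effect of over 55% in size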
Outline: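 Acute cytotoxicity in a human lymphoblastoid line is scored as a concentration-dependent fall in cellular ATP after 24 hr at 37 C in complete medium. The positive control is tetraoctylammonium bromide, and potency is given as Hill-fit AC50.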

[3] = Cell Viability - LYMP2-022 (AID 987); conditions: LYMP2-022 lymphoblastoid cell viability; series mostly up to 92.2 µM;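 note: potency is the fitted concentration of half-maximal effect; cells exposed to compound for 24 hr; nearly all actives have a fitted effect of over 55% in size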
Outline: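 Acute toxicity in a human lymphoblastoid line is scored as decreased intracellular ATP after 24 hr compound treatment at 37 C. ATP is measured by CellTiter-Glo luminescence; curves are fitted with the Hill equation to give AC50.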

[4] = Cell Viability - LYMP2-024 (AID 988);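 note: potency is the fitted concentration of half-maximal effect; cells exposed to compound for 24 hr at 37 °C; nearly all actives have a fitted effect of over 60% in size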
Outline: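 Acute toxicity is measured as concentration-dependent loss of intracellular ATP in a human lymphoblastoid line treated 24 hours at 37 C. Luciferase luminescence quantifies ATP; AC50 values come from standard Hill-equation modelling.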

[5] = Cell Viability - LYMP2-026 (AID 989); conditions: LYMP2-026 lymphoblastoid cell viability, qHTS; activity change, negative = cytotoxic: at 92.2 µM (top of the series);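 note: potency is the fitted concentration of half-maximal effect; cells exposed to compound for 24 h at 37 °C; nearly all actives have a fitted effect of over 50% in size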
Outline: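 Concentration-dependent loss of intracellular ATP in human lymphoblastoid cells after 24 hr at 37 C, quantified by luciferase luminescence. AC50 derived from standard Hill equation.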

[6] = Cell Viability - LYMP1-002 - Assay at 40 hr (AID 994); note: potency is the fitted concentration of half-maximal effect; nearly all actives have a fitted effect of over 60% in size
Outline: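 Viability in the human lymphoblastoid line was measured as intracellular ATP via CellTiter-Glo after 40 hr compound exposure. Tetraoctylammonium bromide served as positive control.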

[7] = target: Ubiquitin carboxyl-terminal hydrolase 1 (Homo sapiens) (UniProt O94782); experiment: Inhibitors of USP1/UAF1: Pilot qHTS (AID 504865);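 note: rhodamine fluorescence freed from ubiquitin-rhodamine substrate followed over time; potency is the fitted concentration of half-maximal effect; nearly all actives have a fitted effect of over 35% in size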
Chain of UniProt O94782 (O94782 whole entry, looked up): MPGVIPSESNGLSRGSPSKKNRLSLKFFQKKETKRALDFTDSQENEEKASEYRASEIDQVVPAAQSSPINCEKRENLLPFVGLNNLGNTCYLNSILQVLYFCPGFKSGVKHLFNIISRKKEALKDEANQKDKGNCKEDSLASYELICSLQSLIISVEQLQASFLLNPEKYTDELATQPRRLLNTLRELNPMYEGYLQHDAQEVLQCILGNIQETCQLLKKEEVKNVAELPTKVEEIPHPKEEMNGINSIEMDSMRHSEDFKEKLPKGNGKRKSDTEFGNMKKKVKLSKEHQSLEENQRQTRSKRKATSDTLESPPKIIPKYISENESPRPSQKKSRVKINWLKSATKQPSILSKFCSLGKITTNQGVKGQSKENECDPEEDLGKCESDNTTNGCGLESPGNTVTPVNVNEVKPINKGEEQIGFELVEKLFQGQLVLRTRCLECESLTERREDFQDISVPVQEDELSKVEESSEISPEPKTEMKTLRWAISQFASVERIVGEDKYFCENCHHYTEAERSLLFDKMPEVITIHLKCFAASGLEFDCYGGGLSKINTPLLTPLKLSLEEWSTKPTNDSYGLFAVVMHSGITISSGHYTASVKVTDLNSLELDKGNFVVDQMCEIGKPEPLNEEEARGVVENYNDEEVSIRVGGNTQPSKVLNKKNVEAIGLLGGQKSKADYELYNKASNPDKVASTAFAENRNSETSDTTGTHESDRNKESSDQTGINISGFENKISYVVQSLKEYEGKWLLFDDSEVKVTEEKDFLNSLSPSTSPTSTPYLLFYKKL
Outline: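 Kinetic fluorescence assay: 1nM USP1/UAF1, 15 min compound preincubation, then 150nM Ub-Rho; 480/540 nm.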

[8] = target: Estrogen receptor (Homo sapiens) (UniProt P03372); experiment: qHTS assay for small molecule antagonists of estrogen receptor alpha signaling (AID 588513; active = well fitted curve in the direction sought with a large enough effect in the signal ratio, with a control signal flat, not every such curve was filed as active; inconclusive = small, poorly fitted or top-dose-only effect, or effect the other way, or a change in a side signal; inactive = no such curve, though single readings can be large or run the other way; the % refers to the signal ratio; note: potency is the fitted concentration of half-maximal effect); conditions: ER-alpha-UAS-bla HEK293, beta-lactamase ratio, antagonist mode; activity, negative = inhibition: at 76.9 µM (top of the series)
Chain of UniProt P03372 (P03372 whole entry, looked up): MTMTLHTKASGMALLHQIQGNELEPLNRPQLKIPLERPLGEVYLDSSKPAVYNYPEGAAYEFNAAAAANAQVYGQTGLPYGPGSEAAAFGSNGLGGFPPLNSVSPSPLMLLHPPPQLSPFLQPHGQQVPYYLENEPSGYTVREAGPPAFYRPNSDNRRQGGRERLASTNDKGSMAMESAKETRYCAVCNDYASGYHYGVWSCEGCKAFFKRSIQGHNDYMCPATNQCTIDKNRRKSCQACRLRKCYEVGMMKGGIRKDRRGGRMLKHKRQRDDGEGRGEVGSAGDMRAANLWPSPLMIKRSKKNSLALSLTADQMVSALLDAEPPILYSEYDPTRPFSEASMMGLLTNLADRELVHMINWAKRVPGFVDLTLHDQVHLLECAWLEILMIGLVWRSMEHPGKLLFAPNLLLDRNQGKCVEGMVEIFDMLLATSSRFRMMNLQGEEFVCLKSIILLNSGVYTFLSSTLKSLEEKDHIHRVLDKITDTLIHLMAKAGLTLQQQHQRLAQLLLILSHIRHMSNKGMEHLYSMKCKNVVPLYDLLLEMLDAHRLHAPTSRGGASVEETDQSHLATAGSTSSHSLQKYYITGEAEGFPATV
Outline: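 Cells were plated at 5000/well and incubated 4 h at 37 C. Compounds were added as 1:2 dilution series, duplicates. 17-beta-estradiol (0.5nM final) was added for 18 h before CCF4 detection.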

[9] = target: Estrogen receptor (Homo sapiens) (UniProt P03372); experiment: qHTS assay for small molecule agonists of estrogen receptor alpha signaling (AID 588514; calls by dose curve; note: potency is the fitted concentration of half-maximal effect; nearly all actives have a fitted effect of over 70% in size); conditions: ER-alpha-UAS-bla HEK293, beta-lactamase ratio, 18 h; activation: at 76.8 µM (top of the series), percent of full estradiol response, vehicle zero unless noted
Outline: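 Reporter-gene assay. […] controls beta-lactamase in HEK 293 GripTite cells; after 18 hrs with compound, CCF4 substrate is added for 2 hrs and fluorescence is read.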

[10] = target: Bile acid receptor (Homo sapiens) (UniProt Q96RI1); experiment: qHTS assay for small molecule agonists of farnesoid X receptor signaling (AID 588527; calls by dose curve; note: potency is the fitted concentration of half-maximal effect); conditions: HEK293T FXR-UAS-bla, beta-lactamase ratio, 16 h; activation: hits give high values
Outline: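 FXR-UAS-bla HEK293T, 10% dialyzed FBS; cpds up to 92 uM titration, 16 h 37 C; CCF4 dye 2 h RT; fluorescence. Normalized to chenodeoxycholic acid 100 uM (100%) and DMSO (0%); Hill fit gives EC50, efficacy.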

[11] = target: Glucocorticoid receptor (Homo sapiens) (UniProt P04150); experiment: qHTS assay for small molecule agonists of glucocorticoid receptor signaling (AID 588532; active = well fitted curve in the direction sought with a large enough effect in the signal ratio, with a control signal flat; inconclusive = small, poorly fitted or top-dose-only effect, or a change in a side signal; inactive = no such curve, though single readings can be large or run the other way; the % refers to the signal ratio; note: potency is the fitted concentration of half-maximal effect); conditions: HeLa MMTV-bla, beta-lactamase ratio, agonist, 18 h; activation: hits give high values, percent of dexamethasone control, DMSO zero
Outline: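 MMTV-bla HeLa beta-lactamase reporter cells in 1% charcoal/dextran FBS medium, compounds up to 92 uM for 18 h at 37 C, CCF4 readout; normalized to 0.1 uM dexamethasone (100%), EC50 and efficacy from Hill fits.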

[12] = target: Peroxisome proliferator-activated receptor gamma (Homo sapiens) (UniProt P37231); experiment: qHTS assay for small molecule antagonists of peroxisome proliferator-activated receptor gamma signaling (AID 588537; active = well fitted inhibition curve with a large enough effect in the signal ratio, with a control signal flat, not every such curve was filed as active; inconclusive = small, poorly fitted or top-dose-only effect, or effect the other way, or a change in a side signal; the % refers to the signal ratio;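 note: reporter cells co-stimulated with 50 nM rosiglitazone agonist during compound treatment; potency is the fitted concentration of half-maximal effect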); conditions: HEK293 PPARg-UAS-bla, beta-lactamase ratio, antagonist mode; activity, negative = inhibition: at 76.8 µM (top of the series)
Outline: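 Step one: plate 3000 HEK293 UAS-bla cells per well in medium with 1% stripped serum and hold 6-6.5 h at 37 C. Step two: add compound and 50 nM agonist for 16 h. Step three: CCF4 loading, fluorescence read.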

[13] = target: Retinoic acid receptor RXR-alpha (Homo sapiens) (UniProt P19793); experiment: qHTS assay for small molecule agonists of retinoid X receptor alpha signaling (AID 588544; calls by dose curve; note: potency is the fitted concentration of half-maximal effect); conditions: HEK293T RXRa-UAS-bla, beta-lactamase reporter, 18 h; activation: at 76.7 µM (top of the series)
Chain of UniProt P19793 (P19793 whole entry, looked up): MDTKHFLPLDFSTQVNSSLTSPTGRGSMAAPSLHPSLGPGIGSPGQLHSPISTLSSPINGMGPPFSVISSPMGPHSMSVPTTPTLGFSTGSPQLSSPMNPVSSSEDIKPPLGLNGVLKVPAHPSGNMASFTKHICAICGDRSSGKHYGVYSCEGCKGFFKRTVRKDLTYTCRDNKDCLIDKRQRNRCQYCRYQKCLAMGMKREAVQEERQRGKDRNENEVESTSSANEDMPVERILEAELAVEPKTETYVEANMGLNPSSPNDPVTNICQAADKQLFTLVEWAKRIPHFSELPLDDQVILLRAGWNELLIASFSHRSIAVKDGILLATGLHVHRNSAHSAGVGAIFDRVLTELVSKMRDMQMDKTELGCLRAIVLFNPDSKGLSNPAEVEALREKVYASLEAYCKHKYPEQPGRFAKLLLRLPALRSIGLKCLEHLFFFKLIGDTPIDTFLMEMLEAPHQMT

[14] = target: Retinoic acid receptor RXR-alpha (Homo sapiens) (UniProt P19793); experiment: qHTS assay for small molecule antagonists of retinoid X receptor alpha signaling (AID 588546; active = well fitted inhibition curve with a large enough effect in the signal ratio, with a control signal flat, not every such curve was filed as active; inconclusive = small, poorly fitted or top-dose-only effect, or effect the other way, or a change in a side signal; inactive = no such curve, though single readings can be large or run the other way; the % refers to the signal ratio; note: potency is the fitted concentration of half-maximal effect); conditions: HEK293T RXRa-UAS-bla, beta-lactamase ratio, antagonist mode
Outline: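 Beta-lactamase reporter inhibition, read as CCF4 fluorescence ratio (ex 405, em 460/530 nm) after 2 h at RT. HEK293T UAS-bla cells, 2500/well, were stimulated with 9-cis-RA at 500 or 100 nM final alongside test compound for 18 h at 37 C.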

[15] = target: Thyroid hormone receptor beta (Homo sapiens) (UniProt P10828); experiment: qHTS assay for small molecule antagonists of thyroid hormone receptor beta signaling (AID 588547; active = well fitted inhibition curve with a large enough effect in the signal ratio, with a control signal flat, not every such curve was filed as active; inconclusive = small, poorly fitted or top-dose-only effect, or effect the other way, or a change in a side signal; the % refers to the signal ratio; note: potency is the fitted concentration of half-maximal effect); conditions: TR-UAS-bla HEK293, beta-lactamase ratio, antagonist mode, 18 h
Chain of UniProt P10828 (P10828 whole entry, looked up): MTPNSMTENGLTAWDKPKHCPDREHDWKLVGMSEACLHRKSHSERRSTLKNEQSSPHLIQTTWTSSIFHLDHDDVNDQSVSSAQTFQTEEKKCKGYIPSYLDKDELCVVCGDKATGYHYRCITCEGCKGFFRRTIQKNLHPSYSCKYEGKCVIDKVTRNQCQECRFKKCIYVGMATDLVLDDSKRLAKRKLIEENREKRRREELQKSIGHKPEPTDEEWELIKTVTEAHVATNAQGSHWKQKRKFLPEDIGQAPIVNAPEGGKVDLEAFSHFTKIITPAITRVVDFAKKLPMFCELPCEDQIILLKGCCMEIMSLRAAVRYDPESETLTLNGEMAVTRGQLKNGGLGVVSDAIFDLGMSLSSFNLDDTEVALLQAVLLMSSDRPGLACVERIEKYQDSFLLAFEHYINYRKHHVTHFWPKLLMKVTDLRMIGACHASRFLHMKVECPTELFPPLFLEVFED
Outline: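 TR-UAS-bla GripTite HEK293 cells in 2% charcoal/dextran FBS medium; compounds 0.59 nM to 92 uM with T3 at 0.4nM final, 18 h at 37 C. Beta-lactamase read by CCF4 fluorescence (460/530 nm); Hill fits gave IC50 and efficacy.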

[16] = qHTS assay for small molecule activators of the p53 signaling pathway (AID 651743; active = well fitted activation curve with a large enough effect in the signal ratio, not every such curve was filed as active; inconclusive = small, poorly fitted or top-dose-only effect, or a change in a side signal; the % refers to the signal ratio; note: potency is the fitted concentration of half-maximal effect); conditions: HCT-116 p53RE-bla, beta-lactamase FRET ratio, 16 h; activation: hits give high values
Outline: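 HCT-116 p53RE-bla, 4,000 cells/well; 5 h settle; cpd/DMSO 16 h, 37 C; LiveBLAzer B/G 2 h RT; fluorescence intensity.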

[17] = qHTS assay for small molecule disruptors of the mitochondrial membrane potential - 1 hr assay (AID 651754; calls by dose curve; note: potency is the fitted concentration of half-maximal effect; nearly all actives have a fitted effect of over 35% in size); conditions: ratio change, negative = depolarisation: at 92.2 µM (top of the series)
Outline: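 Steps: seed HepG2 cells and let attach overnight; pin-transfer compound or vehicle; incubate 1 hr at 37C; add Mito-MPS dye for 30 min; read two-channel fluorescence for monomer and aggregate forms.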

[18] = qHTS assay for small molecule agonists of the antioxidant response element (ARE) signaling pathway measured by Nrf2-dependant transcriptional activity - cell viability counter screen (AID 720653; active = well fitted curve in the direction sought with a large enough effect in the repeat runs; inconclusive = weak or mixed curves; inactive = no such curve, though single readings can be large; an effect the other way counts as inactive or inconclusive; note: potency is the fitted concentration of half-maximal effect); conditions: ARE-bla HepG2 viability, CellTiter-Glo ATP luminescence, 16 h; max response: hits give low values
Outline: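 ARE-bla HepG2 cells treated with compounds for 16 h at 37C; this counter screen measures viability as intracellular ATP by CellTiter-Glo luminescence after 30 min at room temperature.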

[19] = target: Nucleoprotein (Lymphocytic choriomeningitis virus (strain Armstrong)) (UniProt P09992); experiment: qHTS for Inhibitors of the Functional Ribonucleoprotein Complex (vRNP) of Lymphocytic Choriomeningitis Arenaviruses (LCMV): LCMV Primary Screen - GLuc reporter signal (AID 1347086; calls by dose curve; note: nearly all actives have a fitted effect of over 70% in size); conditions: LCMV minigenome vRNP cell assay, Gaussia luciferase reporter; series mostly up to 57.5 µM
Chain of UniProt P09992 (P09992 whole entry, looked up): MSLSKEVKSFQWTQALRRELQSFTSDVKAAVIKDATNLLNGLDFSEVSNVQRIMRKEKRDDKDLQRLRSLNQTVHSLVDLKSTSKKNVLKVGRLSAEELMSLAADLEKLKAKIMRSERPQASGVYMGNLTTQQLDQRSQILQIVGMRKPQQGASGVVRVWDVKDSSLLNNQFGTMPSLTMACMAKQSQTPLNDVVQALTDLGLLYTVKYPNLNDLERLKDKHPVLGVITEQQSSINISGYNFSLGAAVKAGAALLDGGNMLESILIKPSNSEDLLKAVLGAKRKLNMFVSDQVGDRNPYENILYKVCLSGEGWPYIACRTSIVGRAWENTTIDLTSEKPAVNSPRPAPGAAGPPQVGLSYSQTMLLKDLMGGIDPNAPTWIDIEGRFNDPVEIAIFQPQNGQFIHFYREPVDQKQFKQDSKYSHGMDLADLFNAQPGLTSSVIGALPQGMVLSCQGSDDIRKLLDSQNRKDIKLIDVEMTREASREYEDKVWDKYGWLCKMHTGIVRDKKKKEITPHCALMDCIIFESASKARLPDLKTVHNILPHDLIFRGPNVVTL

Measured: Potency
Tags give direction and shape of the fitted curve or compound fluorescence and quenching.

Oc1ccc(Cl)cc1Sc1cc(Cl)ccc1O
inconclusive: [1] 50.1 µM [cytotoxic, partial curve, poor fit] | [3] 50.1 µM [cytotoxic, partial curve, poor fit] | [4] 39.8 µM [cytotoxic, partial curve] | [5] 50.1 µM [cytotoxic, partial curve, poor fit] | [7] 56.2 µM [inhibitor, partial curve, poor fit] | [8] 50.1 µM [falling, partial curve, poor fit] | [9] 31.6 µM [side channel, rising, partial curve] | [10] 22.4 µM [side channel, rising, full curve] | [11] 0.631 µM [side channel, falling, partial curve, poor fit] | [12] 50.1 µM [side channel, rising, single point] | [13] 22.4 µM [inhibitor, partial curve, poor fit] | [14] 25.1 µM [inhibitor, full curve] | [15] 39.8 µM [side channel, rising, partial curve, poor fit] | [18] 50.1 µM [cytotoxic, partial curve, poor fit]
active: [2] 39.8 µM | [6] 50.1 µM | [16] 28.2 µM | [17] 8.41 µM
inactive: [19]
